Results reported in the supplement of paper PMC8728848.
This is one part of the list.

Tests used:
Experiment in all cases: glycan array binding signal (z-score within array); higher = stronger binding
Settings in all cases: glycan notation: IUPAC condensed, linker removed
[1] = target: GalNAc(a1-3)GalNAc(b1-3)Gal(a1-4)Gal(b1-4)GlcNAc
Procedure, shortened: (§1)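 The binding signal is a Z-score computed within each array. Data were drawn from 3228 arrays in the Consortium for Functional Glycomics database, restricted to those with a known protein sequence. Scores were averaged over arrays of the same protein sequence at different concentrations or buffers, and over linkers, and negative values can be taken as non-binding.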

[2] = target: GalNAc(b1-3)Gal
Procedure, shortened: as §1

[3] = target: GalNAc(b1-3)Gal(a1-4)Gal(b1-4)GlcNAc
Procedure, shortened: as §1

[4] = target: GalNAc(b1-3)Gal(a1-4)Gal(b1-4)GlcNAc(b1-3)Gal(b1-4)Glc
Procedure, shortened: as §1

[5] = target: GalNAc(b1-3)Gal(a1-6)Gal(b1-4)Glc
Procedure, shortened: as §1

[6] = target: GalNAc(b1-3)GalNAc
Procedure, shortened: as §1

[7] = target: GalNAc(b1-3)GlcNAc
Procedure, shortened: as §1

[8] = target: GalNAc(b1-4)Gal(b1-4)Glc
Procedure, shortened: as §1

[9] = target: GalNAc(b1-4)GlcNAc
Procedure, shortened: as §1

[10] = target: GalNAc(b1-4)GlcNAc(b1-2)Man
Procedure, shortened: as §1

[11] = target: GalNAc(b1-4)GlcNAc(b1-2)Man(a1-3)[GalNAc(b1-4)GlcNAc(b1-2)Man(a1-6)]Man(b1-4)GlcNAc(b1-4)GlcNAc
Procedure, shortened: as §1

[12] = target: GalNAc(b1-4)GlcNAc(b1-3)GalNAc(b1-4)GlcNAc
Procedure, shortened: as §1

[13] = target: GalNAc(b1-4)GlcNAc6S
Procedure, shortened: as §1

[14] = target: GalNAc(b1-6)GalNAc
Procedure, shortened: as §1

[15] = target: GalNAc3S(b1-4)GlcNAc
Procedure, shortened: as §1

[16] = target: GalNAc3S(b1-4)GlcNAc3S
Procedure, shortened: as §1

[17] = target: GalNAc3S(b1-4)[Fuc(a1-3)]GlcNAc
Procedure, shortened: as §1

[18] = target: GalNAc4S6S(b1-4)GlcNAc
Procedure, shortened: as §1

[19] = target: GalNAc6S(b1-4)GlcNAc
Procedure, shortened: as §1

[20] = target: Glc(a1-4)Glc
Procedure, shortened: as §1

[21] = target: Glc(a1-4)Glc(a1-4)Glc(a1-4)Glc
Procedure, shortened: as §1

[22] = target: Glc(a1-6)Glc(a1-6)Glc
Procedure, shortened: as §1

[23] = target: Glc(a1-6)Glc(a1-6)Glc(a1-6)Glc
Procedure, shortened: as §1

[24] = target: Glc(b1-4)Glc
Procedure, shortened: as §1

[25] = target: Glc(b1-6)Glc
Procedure, shortened: as §1

[26] = target: GlcA(b1-3)Gal
Procedure, shortened: as §1

[27] = target: GlcA(b1-3)GlcNAc
Procedure, shortened: as §1

[28] = target: GlcA(b1-6)Gal
Procedure, shortened: as §1

[29] = target: GlcA3S(b1-3)Gal(b1-4)GlcNAc(b1-2)Man
Procedure, shortened: as §1

[30] = target: GlcA3S(b1-3)Gal(b1-4)GlcNAc(b1-3)Gal(b1-4)Glc
Procedure, shortened: as §1

[31] = target: GlcNAc(a1-3)Gal(b1-4)GlcNAc
Procedure, shortened: as §1

[32] = target: GlcNAc(a1-4)Gal(b1-3)GlcNAc
Procedure, shortened: as §1

[33] = target: GlcNAc(a1-4)Gal(b1-4)GalNAc
Procedure, shortened: as §1

[34] = target: GlcNAc(a1-4)Gal(b1-4)GlcNAc
Procedure, shortened: as §1

[35] = target: GlcNAc(a1-4)Gal(b1-4)GlcNAc(b1-3)Gal(b1-4)Glc
Procedure, shortened: as §1

[36] = target: GlcNAc(a1-4)Gal(b1-4)GlcNAc(b1-3)Gal(b1-4)GlcNAc
Procedure, shortened: as §1

[37] = target: GlcNAc(a1-4)Gal(b1-4)GlcNAc(b1-3)Gal(b1-4)GlcNAc(b1-3)Gal(b1-4)GlcNAc
Procedure, shortened: as §1

[38] = target: GlcNAc(a1-4)Gal(b1-4)GlcNAc(b1-3)Gal(b1-4)[Fuc(a1-3)]GlcNAc(b1-3)Gal(b1-4)[Fuc(a1-3)]GlcNAc
Procedure, shortened: as §1

B1: Epa1 (Candida glabrata) (protein)
chain: MGSSHHHHHHSSGLVPRGSHMTSSNDISLASKDPTTFPLGCSPDITTPKKGLSMELYSYDFRKKGSYPCWDAAYLDPNYPRTGYKSHRLLAKVDGVTGNINFYYHATKGCTPQLGHLPASYNYPKPLTMTNFTMLLYGYFRPKVTGFHTFTISADDLLFVNFGAGNAFDCCRRDSSADHFGNYQAYAIWGSKTAKDELTVHLDAGVYYPIRLFYNNREYDGALSFTFKTESNENTVSDFSEYFFSLDDTEEGCPGLISYD
**Q.** For B1, which “glycan array binding signal (z-score)” value [1] is on record?
**A.** Its value is -0.312.

**Q.** What about the “glycan array binding signal (z-score)” value [2] of the same binder?
**A.** Its value is -0.28.

**Q.** And the “glycan array binding signal (z-score)” value [3]?
**A.** Its value is -0.287.

**Q.** And the “glycan array binding signal (z-score)” value [4]?
**A.** The value was -0.312.

**Q.** What about the “glycan array binding signal (z-score)” value [5] of the same binder?
**A.** Its value is -0.314.

**Q.** And the “glycan array binding signal (z-score)” value [6]?
**A.** The value was -0.302.

**Q.** And the “glycan array binding signal (z-score)” value [7]?
**A.** The value was -0.344.

**Q.** And the “glycan array binding signal (z-score)” value [8]?
**A.** The value was -0.254.

**Q.** What about the “glycan array binding signal (z-score)” value [9] of the same binder?
**A.** Its value is -0.255.

**Q.** What about the “glycan array binding signal (z-score)” value [10] of the same binder?
**A.** Its value is -0.306.

**Q.** What about the “glycan array binding signal (z-score)” value [11] of the same binder?
**A.** Its value is -0.242.

**Q.** And the “glycan array binding signal (z-score)” value [12]?
**A.** The value was -0.355.

**Q.** What about the “glycan array binding signal (z-score)” value [13] of the same binder?
**A.** Its value is -0.279.

**Q.** And the “glycan array binding signal (z-score)” value [14]?
**A.** The value was -0.318.

**Q.** And the “glycan array binding signal (z-score)” value [15]?
**A.** Its value is -0.321.

**Q.** What about the “glycan array binding signal (z-score)” value [16] of the same binder?
**A.** The value was -0.268.

**Q.** What about the “glycan array binding signal (z-score)” value [17] of the same binder?
**A.** Its value is -0.321.

**Q.** And the “glycan array binding signal (z-score)” value [18]?
**A.** Its value is -0.259.

**Q.** What about the “glycan array binding signal (z-score)” value [19] of the same binder?
**A.** Its value is -0.259.

**Q.** What about the “glycan array binding signal (z-score)” value [20] of the same binder?
**A.** Its value is -0.345.

**Q.** And the “glycan array binding signal (z-score)” value [21]?
**A.** The value was -0.282.

**Q.** And the “glycan array binding signal (z-score)” value [22]?
**A.** The value was -0.354.

**Q.** And the “glycan array binding signal (z-score)” value [23]?
**A.** The value was -0.297.

**Q.** What about the “glycan array binding signal (z-score)” value [24] of the same binder?
**A.** The value was -0.363.

**Q.** And the “glycan array binding signal (z-score)” value [25]?
**A.** Its value is -0.274.

**Q.** What about the “glycan array binding signal (z-score)” value [26] of the same binder?
**A.** Its value is -0.286.

**Q.** And the “glycan array binding signal (z-score)” value [27]?
**A.** Its value is -0.28.

**Q.** What about the “glycan array binding signal (z-score)” value [28] of the same binder?
**A.** The value was 0.89.

**Q.** And the “glycan array binding signal (z-score)” value [29]?
**A.** The value was -0.3.

**Q.** What about the “glycan array binding signal (z-score)” value [30] of the same binder?
**A.** The value was -0.327.

**Q.** What about the “glycan array binding signal (z-score)” value [31] of the same binder?
**A.** Its value is -0.294.

**Q.** What about the “glycan array binding signal (z-score)” value [32] of the same binder?
**A.** Its value is -0.365.

**Q.** What about the “glycan array binding signal (z-score)” value [33] of the same binder?
**A.** Its value is -0.365.

**Q.** What about the “glycan array binding signal (z-score)” value [34] of the same binder?
**A.** Its value is -0.251.

**Q.** What about the “glycan array binding signal (z-score)” value [35] of the same binder?
**A.** Its value is -0.322.

**Q.** What about the “glycan array binding signal (z-score)” value [36] of the same binder?
**A.** The value was -0.322.

**Q.** What about the “glycan array binding signal (z-score)” value [37] of the same binder?
**A.** Its value is -0.279.

**Q.** And the “glycan array binding signal (z-score)” value [38]?
**A.** Its value is -0.191.
